Assay results taken from the supplement of paper PMC11876631.
Substitutions are numbered along the chain they refer to. Numbers in names are those of the source. ± gives the standard deviation of the averaged measurements. Laboratory Escherichia coli strains with one amino-acid change in an essential protein, pooled on minimal glucose agar with carbenicillin or gentamicin at twice the control MIC (plus kanamycin and chloramphenicol for the plasmids), 48 h. Fold change of barcode share against drug-free plates; higher = less susceptible. Active = above 20 in both replicates (the paper's putatively resistant). '<' = one read or none on drug, '>' = one read or none on a drug-free plate. Shares are relative, so most strains fall below 1 when a few take over. Listed are strains with at least 15 reads on both drug-free plates, and hits; most hits rest on fewer reference reads. Replicate rank correlation about 0.5. Edits are read from barcodes.

B1: dapA V40A (protein)
chain: MFTGSIVAIVTPMDEKGNVCRASLKKLIDYHVASGTSAIASVGTTGESATLNHDEHADVVMMTLDLADGRIPVIAGTGANATAEAISLTQRFNDSGIVGCLTVTPYYNRPSQEGLYQHFKAIAEHTDLPQILYNVPSRTGCDLLPETVGRLAKVKNIIGIKEATGNLTRVNQIKELVSDDFVLLSGDDASALDFMQLGGHGVISVTANVAARDMAQMCKLAAEGHFAEARVINQRLMPLHNKLFVEPNPIPVKWACKELGLVATDTLRLPMTPITDSGRETVRAALKHAGLL
B2: cysS L293A (protein)
chain: MLKIFNTLTRQKEEFKPIHAGEVGMYVCGITVYDLCHIGHGRTFVAFDVVARYLRFLGYKLKYVRNITDIDDKIIKRANENGESFVAMVDRMIAEMHKDFDALNILRPDMEPRATHHIAEIIELTEQLIAKGHAYVADNGDVMFDVPTDPTYGVLSRQDLDQLQAGARVDVVDDKRNPMDFVLWKMSKEGEPSWPSPWGAGRPGWHIECSAMNCKQLGNHFDIHGGGSDLMFPHHENEIAQSTCAHDGQYVNYWMHSGMVMVDREKMSKSLGNFFTVRDVLKYYDAETVRYFAMSGHYRSQLNYSEENLKQARAALERLYTALRGTDKTVAPAGGEAFEARFIEAMDDDFNTPEAYSVLFDMAREVNRLKAEDMAAANAMASHLRKLSAVLGLLEQEPEAFLQSGAQADDSEVAEIEALIQQRLDARKAKDWAAADAARDRLNEMGIVLEDGPQGTTWRRK
B3: cysS V45A (protein)
chain: B2 chain with V45A, A293L
B4: cysS L391P (protein)
chain: B2 chain with A293L, L391P
B5: cysS L293D (protein)
chain: B2 chain with A293D
B6: cysS L384A (protein)
chain: B2 chain with A293L, L384A
B7: cysS L391A (protein)
chain: B2 chain with A293L, L391A
B8: cysS V45Q (protein)
chain: B2 chain with V45Q, A293L
B9: cysS L391Q (protein)
chain: B2 chain with A293L, L391Q
B10: cysS L293W (protein)
chain: B2 chain with A293W
B11: cysS L391W (protein)
chain: B2 chain with A293L, L391W
B12: acpS L6A (protein)
chain: MAILGAGTDIVEIARIEAVIARSGDRLARRVLSDNEWAIWKTHHQPVRFLAKRFAVKEAAAKAFGTGIRNGLAFNQFEVFNDELGKPRLRLWGEALKLAEKLGVANMHVTLADERHYACATVIIES

Each protein was assayed against Escherichia coli (laboratory strain) (assay: barcode share on antibiotic plates over drug-free plates; higher = less susceptible). Conditions: antibiotic: carbenicillin; 2× MIC (3.1 µg/mL).
Description: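 A pool of E. coli strains, each edited to carry one amino-acid change in an essential protein, was grown for 48 h on minimal glucose agar with or without antibiotic; strain barcodes were sequenced; mean of two replicates.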

| Protein | fold change of barcode share |
| --- | --- |
| B1 | 0.2268 ± 0.0017 |
| B2 | 0.342 ± 0.043 |
| B3 | 0.629 ± 0.11 |
| B4 | 0.392 ± 0.057 |
| B5 | 0.83 ± 0.49 |
| B6 | 0.222 ± 0.093 |
| B7 | 0.387 ± 0.018 |
| B8 | 0.767 ± 0.29 |
| B9 | 0.337 ± 0.25 |
| B10 | 0.389 ± 0.14 |
| B11 | 0.335 ± 0.11 |
| B12 | 0.314 ± 0.08 |

Same assay, conditions: antibiotic: gentamicin; 2× MIC (MIC 0.45 µg/mL)

| Protein | fold change of barcode share |
| --- | --- |
| B1 | 0.00927 ± 0.0041 |
| B2 | 0.00308 ± 0.0018 |
| B3 | 0.0056 ± 0.0062 |
| B6 | < 0.0128 |
| B7 | 0.00865 ± 0.0075 |
| B9 | < 0.00832 |
| B10 | 0.00394 ± 0.002 |
| B12 | 0.0741 ± 0.1 |
